Reference: the supplement of paper PMC3334620
Whole data set: some 33,000 sequences, median “E-score (-0.5 to 0.5)” near -0.017, cut for the highest 2% near 0.3. This is one part of the list.

These sequences were tested against T1, Sut1 (UniProt P53032) (assay: PBM E-score (8-mer binding enrichment) (E-score (-0.5 to 0.5)); higher = stronger / more preferred TF binding; most listed sequences are background and not binding sites). Details: protein concentration: 200 nM; construct: GST-full length.
T1 sequence: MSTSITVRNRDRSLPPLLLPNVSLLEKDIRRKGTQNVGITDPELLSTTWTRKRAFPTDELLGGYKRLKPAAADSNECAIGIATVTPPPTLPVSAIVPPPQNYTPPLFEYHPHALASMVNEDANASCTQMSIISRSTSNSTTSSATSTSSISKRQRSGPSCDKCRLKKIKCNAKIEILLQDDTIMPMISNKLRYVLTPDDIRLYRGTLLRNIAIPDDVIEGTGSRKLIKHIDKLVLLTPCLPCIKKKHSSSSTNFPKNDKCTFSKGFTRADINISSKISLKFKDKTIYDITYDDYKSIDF
Procedure, shortened: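 Bound GST-tagged yeast transcription factors, applied at about 100-200 nM to double-stranded universal all-10-mer Agilent arrays, were detected with fluorescent anti-GST. Scans were normalised with masliner. A modified Wilcoxon-Mann-Whitney statistic, the E-score, was assigned to each ungapped eight-base word pooled with its reverse complement by the Universal PBM Analysis Suite.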

Sequence | PBM E-score
CCTTGGCG | -0.18
AGGTCTAC | -0.164
CGCTATCC | 0.0163
GTATATTA | 0.264
ACTCATTC | 0.0546
TCTCCAAA | -0.0978
GATTCTTA | 0.221
AATGTTGA | 0.0703
TGATAGAA | 0.042
AAAGGCTT | 0.0006
AAGTGCTG | -0.0872
CGATTGCA | 0.0426
ACTCTAAG | -0.0309
CCCCTTAG | -0.206
ACTAGTCG | -0.0427
GATTCGTA | 0.06
CTGTCCTA | -0.0818
AACAACCC | 0.183
ATTCGTGC | 0.091
CATCGAAG | 0.00625
AATTCTGG | -0.0608
ATACAAGG | 0.032
CACAACTC | 0.0306
ATGCATCA | 0.24
AAACGCCC | -0.0788

Sequence | PBM E-score
GCATCTCA | 0.0536
CAAACAAG | 0.0263
CTTTATCA | 0.197
GCAGCGCA | -0.216
ACAGCATA | 0.0341
AGTTTACC | 0.143
ACCGGCAA | -0.198
AACAGCCG | -0.175
CAGATGAA | 0.0207
GACGACAC | 0.0533
ACTCTCTA | -0.0769
CAAAGATC | 0.118
AATGTCAG | -0.0732
GCCGACGC | -0.0606
CCTAGGCC | -0.152
AGATTCAG | 0.0532
CAAAGGGG | -0.211
ACTCTCCT | -0.197
CGGAGTGA | 0.451
AGCCAGCG | -0.249
GCAGCGAA | -0.0499
CTACAGAC | -0.191
AGGAACAG | -0.15
ATTCTAGG | 0.0703
ACCCAGCA | -0.134

Sequence | PBM E-score
ATCATCTA | 0.00502
ATCCTAAT | 0.0294
ATAGTGAC | 0.0631
CATTGGCG | -0.223
CCTTGTTC | -0.103
CACCCAGA | -0.00128
CAAGAACG | 0.159
ATGACGTA | 0.0909
ATGGTTGC | -0.183
GATGTGCA | -0.094
ATCAAATA | 0.239
ATGTTTTC | 0.165
ATACCTGC | -0.196
CGAGACAA | -0.1
AGCTAATG | -0.147
CCATTCAA | 0.0663
ATCGTAAT | 0.253
AGCTCACG | -0.137
ACAAAGCA | 0.0335
ACTTAACA | -0.0136
CGCTACAC | -0.298
CGCCGCGC | -0.246
GAGTGAAC | -0.111
CAGAAGCC | -0.134
TATCGCAA | 0.0889

Sequence | PBM E-score
AATGTGTA | 0.0338
CACTATAC | -0.0209
GGAGACAC | -0.0271
AGGGACGG | -0.208
AACCCTCG | -0.201
GCGCGCCA | 0.0637
ACATCTAA | 0.0364
CCTCGCAA | -0.186
CAGAGCGA | -0.039
GTGGTTTA | -0.00096
TTATTCAA | 0.262
AGGGGCGA | -0.43
AGCAGTAA | 0.0389
AGGGTCCA | -0.289
ATGATAGG | 0.0269
AGTCAAAT | 0.0856
GCATACGC | -0.122
ATACCCGA | -0.0834
ACTCTTGC | -0.174
AGAGTAGG | -0.0457
CGCTTCAC | -0.176
GGGGAACA | -0.142
ATCTGAGG | -0.0962
GAATTGTC | -0.0575
CGACCCAA | 0.0507

Sequence | PBM E-score
ACGTTCTC | 0.0774
AGCAGAGG | -0.311
CTCCCGCC | -0.223
CTAAGTGA | 0.134
ATGCTATC | -0.137
TCCAGAAA | -0.0459
CAGTTACG | -0.146
ACTCGATC | 0.0221
GGTGAGAA | 0.137
CACTTGCA | -0.0957
CAAGGCGA | -0.276
ACTGTGAA | 0.0243
ACTCTATG | -0.0223
ACGGTCAG | -0.205
AGGAAACG | -0.00178
TGAGGCAA | -0.0189
CCCGTAAC | -0.0218
GACTTAGA | 0.0169
ACATTGAG | 0.0164
CAACAAAA | 0.188
TCCGCGGA | 0.289
TTACATAA | 0.288
CACCCTTC | -0.101
CTCCGGAG | 0.487
ATCGCTAG | 0.0238

Sequence | PBM E-score
GGGGAAGA | -0.281
TGCGAACA | 0.15
AAAATGAG | -0.00485
AATGACGG | 0.18
CACTGTGC | -0.0889
CACAGGGG | -0.39
CCTGTCGA | -0.148
CTGGTAAC | -0.0815
ACTCCAAA | 0.135
CTTCCCTA | -0.104
ACCATCCC | 0.0116
AGTTGCCA | -0.0183
CTGCTAAC | -0.114
ACCACACC | -0.0678
GGGACCCC | -0.202
AAGGAGGT | 0.0105
AGCCGCTG | -0.166
CACCTTCA | -0.107
ACCCGTGA | -0.134
ACGGAGTG | 0.42
AGCGCCAT | -0.311
CAAGTACC | -0.025
AGGTCGGC | -0.131
AACTCTAG | -0.0347
AGATCCCT | -0.102

Sequence | PBM E-score
CTCCTCGC | -0.277
ATATGCGG | 0.0987
AGCCGCTC | -0.0222
CCCTTCAA | -0.068
AAACTCGT | 0.0914
AAATCGGT | 0.0195
TAGGAGAA | -0.0909
ACTCGAGC | -0.154
TATGTGGA | 0.212
ATGACCGG | 0.00977
GATTCTCC | 0.162
AGTATTTC | 0.206
CCCCTGAC | -0.23
AGCAGGAC | -0.0558
GTGGATTA | 0.0983
CACTCAGA | -0.114
CAGTTAGC | -0.11
AACGATCA | 0.0789
AAACTGAG | 0.0712
GTGGCCGA | -0.093
ACTAGGAT | 0.0557
CCCGTACC | -0.0545
